EPA's CvTdb concentration-time database
This continues a long series; more values of the same kind are listed elsewhere. One block for each molecule: values may come before it.

How the values were obtained:
Assay in all cases: concentration in plasma after dosing
Rat [1] = conditions: 6 h; dosed: Perfluorohexane-1-sulphonic acid – potassium salt; 16 mg/kg; oral; Female; Harlan Sprague Dawley
Rat [2] = conditions: dosed: Perfluorohexane-1-sulphonic acid – potassium salt, 4 mg/kg, oral, Female, Harlan Sprague Dawley
Rat [3] = conditions: dosed: Perfluorohexane-1-sulphonic acid – potassium salt, 32 mg/kg, oral, Male, Harlan Sprague Dawley
Rat [4] = conditions: dosed: Fluorotelomer alcohol 8+2, 24 mg/kg, oral, Male, Harlan Sprague Dawley
Rat [5] = conditions: dosed: Fluorotelomer alcohol 8+2, 48 mg/kg, oral, Male, Harlan Sprague Dawley
Rat [6] = conditions: dosed: Isoeugenol, 17 mg/kg, iv, Male, F344/N

SMILES: O=S(=O)([O-])C(F)(F)C(F)(F)C(F)(F)C(F)(F)C(F)(F)C(F)(F)F.[K+] [Perfluorohexane-1-sulphonic acid – potassium salt]
- concentration in plasma (Rat [1]): 78800 ng/mL
- concentration in plasma (Rat [2]; 1 h): 15900 ng/mL
- concentration in plasma (Rat [2]; 24 h): 21400 ng/mL
- concentration in plasma (Rat [2]; 288 h): 346 ng/mL
- concentration in plasma (Rat [3]; 6 h): 180000 ng/mL
- concentration in plasma (Rat [3]; 192 h): 103000 ng/mL

- concentration in plasma (Rat [4]; 0.75 h): 373 ng/mL
- concentration in plasma (Rat [4]; 48 h): 305 ng/mL
- concentration in plasma (Rat [5]; 5 min): 0.916 ng/mL
- concentration in plasma (Rat [5]; 3 h): 1990 ng/mL
SMILES: O=C(O)CCC(F)(F)C(F)(F)C(F)(F)C(F)(F)C(F)(F)C(F)(F)C(F)(F)F [Fluorotelomer acid 7+3]

- concentration in plasma (Rat [6]; 20 min): 1940 ng/mL
- concentration in plasma (Rat [6]; 2 h): 58.7 ng/mL
SMILES: C/C=C/c1ccc(O)c(OC)c1 [Isoeugenol]
